The whole screen tested about 46,000 compounds, of which about 60 (0.1%) were called active. Roughly 3% stayed inconclusive and do not appear here. The call rests on the fitted dose curve; in most records, active means well fitted inhibition curve with a large enough effect; inconclusive means small, poorly fitted or top-dose-only effect; inactive means no such curve, though single readings can be large or run the other way. This is one part of the list.
Experiment: Primary qHTS assay for Inhibitors of ovarian cancer metastasis using an organotypic tumor microenvironment (TME) model. Further: nearly all actives have a fitted effect of over 65% in size.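 On activity change, negative = inhibition: plate controls were DMSO wells for no effect and tomatine positive control wells for full effect.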
Settings: SKOV3ip1-GFP adhesion/invasion on 3D omental model, fluorescence; series mostly up to 45.8 µM; activity change, negative = inhibition: at the top concentration
Outline: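 A 3D layer of primary human omental fibroblasts, mesothelial cells, fibronectin and collagen I, grown 48 hr, received SKOV3ip1-GFP cells in serum-free medium plus compounds at 0.36-46 umol/L. After 2 hr RT and 16 hr 37 C, fixed adherent GFP cells were counted; normalized to DMSO and tomatine.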

Activity change, negative = inhibition, inactive:
CCOC(=O)c1ccc(NC(=O)Cn2cc(C(=O)c3ccc(Cl)cc3)c(=O)c3ccc(C)nc32)cc1 -7.39%
O=C(CCNS(=O)(=O)c1ccc2c(c1)CCN2C(=O)C1CC1)Nc1ccc(F)cc1F -28.1%
Fc1ccc2c(c1)NC(c1ccncc1)=NC(c1cccs1)=N2 4.19%
Cc1cccc(-c2nc(Cn3c(SCc4cccc(C(F)(F)F)c4)nc4ccncc43)c(C)o2)c1 -25.4%
Cn1cnc2c(=O)oc3ccc(S(=O)(=O)N4CCN(c5cccc(Cl)c5)CC4)cc3c21 4.45%
Cc1c(NC(=O)c2cc(=O)c3cc(Cl)ccc3o2)c(=O)n(-c2ccccc2)n1C -24.5%
COC(=O)c1cc2occc2n1Cc1nc(-c2ccc(C)cc2)oc1C -27.2%
Cc1nc2c(C(=O)NC(C)c3ccccc3)cnn2c(C)c1Cc1ccccc1 (configuration not stated) -0.736%
CC1=C(CC(=O)O)c2cc(F)ccc2C1=Cc1ccc(S(C)=O)cc1 (configuration not stated) 36.6%
CCC(=O)Nc1nnc(S(=O)(=O)N2CCc3ccccc32)s1 -23.8%
CCN(Cc1ccccc1)C(=O)C1CCN(S(=O)(=O)c2c(C)noc2/C=C/c2ccc(C)cc2)CC1 11.9%
CCCNCC(O)COc1ccccc1C(=O)CCc1ccccc1 (configuration not stated) -8.02%
Cc1ccc(CCNC(=O)c2ccc(CSCc3ccccc3C)o2)cc1 0.914%
CCC1CN(C(=O)N2CCC(C(=O)O)CC2)c2cc(C)ccc2O1 (configuration not stated) 3.99%
CC(=O)c1nn(-c2ccc(OC(F)(F)F)cc2)nc1Nc1ccc(C)cc1 -3.27%
COc1ccccc1CNC(=O)CS(=O)Cc1nc(-c2ccc(OC)c(OC)c2)oc1C (configuration not stated) 3.64%
CCOC(=O)c1ccc(NC(=O)C2CCN(S(=O)(=O)c3ccc(C)cc3)CC2)cc1 1.6%
CCOc1ccc(CNS(=O)(=O)c2ccc(-c3cc(C(F)(F)F)on3)s2)cc1 -2.11%
COc1ccccc1CNC(=O)c1sc2nc3n(c(=O)c2c1C)CCC3 19%
Cc1cccc(N2CCN(C(=O)c3ccc(NC(=O)c4nsc5ccccc45)cc3)CC2C)c1 (configuration not stated) -14.7%
CCOc1ccc(Cl)cc1C1CC(=O)Nc2cc(OC)c(OC)c(OC)c21 (configuration not stated) 12.9%
CCOc1ccc(-c2cc(C(=O)NCc3ccc(C)cc3)c3ccccc3n2)cc1 2.39%
CCCNc1ccc(-c2nc(-c3ccncc3)no2)cc1[N+](=O)[O-] -5.74%
CCCC(CCC)C(=O)Nc1cccc(-c2cn3cccnc3n2)c1 -6.34%
CCOC(=O)C1CCCN(C(=O)Cn2ncc3c([nH]c4ccc(C)cc43)c2=O)C1 (configuration not stated) 4.46%
COc1cc2[nH]c(=O)n(CCCC(=O)NCc3ccccc3)c(=O)c2cc1OC 9.23%
CCc1ccc(NC(=O)CCCc2nc(-c3ccco3)no2)cc1 0.643%
O=C(Nc1ccc2nc(SCC(=O)N3CCCC3)sc2c1)c1ccccc1F -4.87%
COc1ccccc1CNC(=O)CN1C(=O)CCc2cc(S(=O)(=O)N3CCOCC3)ccc21 -9.84%
COc1ccc(CNC(=O)c2c(Nc3ccccc3C)sc(C(=O)c3ccccc3)c2N)cc1 -1.18%
Cc1ccc(OCc2nc(-c3ccc(C(=O)NCCc4ccc(S(N)(=O)=O)cc4)cc3)oc2C)cc1 5.11%
COC(=O)c1c(NC(=O)CCCOc2ccccc2C)sc2c1CCC(C)C2 (configuration not stated) 2.18%
CCOC(=O)c1sc2ccccc2c1S(=O)(=O)N1CCN(c2ccccc2)CC1 -2.12%
O=C(CSc1nc(-c2cccs2)nc2cc(=O)[nH]n12)Nc1ccc(F)cc1 2.35%
CCOc1ccc(NC(=O)CNS(=O)(=O)c2ccc(Br)s2)cc1 -27%
COc1ccc(NC(=O)c2cc(-c3ccccc3O)no2)cc1 1.35%
CC1CN(C(=O)N2CCC(C(=O)NCc3ccco3)CC2)c2cc(Cl)ccc2O1 (configuration not stated) -7.34%
CC(C)c1ccc(NC(=O)CSc2nc(=O)n(Cc3cccnc3)c3c2CCC3)cc1 -10%
CN1CCN(C(=O)Nc2cccc(Cl)c2)c2cccnc21 5.92%
CCOc1ccccc1NC(=O)CSc1nc2c(oc3ccccc32)c(=O)n1Cc1ccco1 8.2%
CCOC(=O)c1cnc2c(C(F)(F)F)cccc2c1Nc1cccc(C(=O)OC)c1 -2.9%
CCc1cnc2c(c1SCC(=O)Nc1cc(Cl)ccc1OC)c(=O)n(C)c(=O)n2C 2.61%
COc1ccc(CCNC(=O)Cn2cc(S(=O)(=O)Cc3cccc(Cl)c3)c3ccccc32)cc1OC -4.85%
O=C(NC1CCCC1)c1ccc2c(c1)N(Cc1ccccc1Cl)C(=O)c1ccccc1S2 -2.58%
CCc1ccc(CNC(=O)C2CCN(C(=O)N3CC(CC)Oc4ccc(C)cc43)CC2)cc1 (configuration not stated) 3.66%
COc1ccccc1OCC(O)CN1CCN(CC(=O)Nc2c(C)cccc2C)CC1 (configuration not stated) -2.28%
Cc1ccn2c(=O)c(C(=O)NCc3ccccc3Cl)c(O)nc2c1 5.53%
CCOC(=O)c1c(N)n(-c2cccc(C)c2C)c2nc3ccccc3nc12 -16%
CCc1ccccc1Nc1nn2c(=O)c3ccc(C(=O)NC4CCCCC4)cc3nc2s1 -10.2%
COc1ccc(S(=O)(=O)Nc2cccc(-c3ccc(N4CCCCCC4)nn3)c2)c(OC)c1 3.98%
COC(=O)C(CCSC)NC(=O)c1cc2c(n(-c3ccc(OC)cc3)c1=O)CC(C)(C)CC2=O (configuration not stated) 20%
Cc1ccccc1-c1nnc(SCC(=O)N2CCCCC2)o1 -5.82%
CCN(c1ccccc1)S(=O)(=O)c1nnc(NC(=O)c2ccco2)s1 -0.387%
COc1cc(OC)c(Nc2c3c(nc4nc(-c5cccs5)nn24)CCCC3)cc1Cl 1.1%
O=C(Nc1cccc2c(=O)cc(-c3nn[nH]n3)oc12)c1ccc(OCCCCc2ccccc2)cc1 -12.2%
COc1ccc(-c2nc3scc(CCNC(=O)Cc4ccc(F)cc4)n3n2)cc1 2.05%
CCC(C)NC(=O)c1ccc2nc(Cc3ccccc3)oc2c1 (configuration not stated) 1.22%
COc1cc(CN(C(=O)COc2ccc(Cl)c(C)c2)c2ccccn2)cc(OC)c1OC -2.58%
Cc1ccc(-n2ncc(C(=O)Nc3c(Cl)cccc3Cl)c2C2CCNCC2)cc1 -14.2%
O=C(COCc1cc(-c2ccc3c(c2)OCO3)on1)NCc1ccc(F)cc1 -5.95%
CSc1ccc(CCNC(=O)c2ccc(CS(=O)Cc3ccc(Cl)cc3)o2)cc1 (configuration not stated) 10.2%
CSc1nc2c([nH]c3ccccc32)c(=O)n1-c1ccc(C)cc1 -2.39%
Cc1ccc2nc(-c3ccc(Cl)c(NC(=O)c4ccc(Br)o4)c3)oc2c1 -9.86%
COc1cc(C2CC(=O)Nc3c2c(C)nn3-c2nncc(-c3ccccc3)n2)cc(OC)c1OC (configuration not stated) -4.78%
O=C(CSc1nc(-c2cccs2)nc2cc(=O)[nH]n12)Nc1ccccc1Cl -2.79%
Cc1cccc(-c2nc(CSCC(=O)N3CCN(c4cccc(C)c4C)CC3)c(C)o2)c1 11.9%
COc1ccc(/C=C/c2nc(C#N)c(N3CCC(C)CC3)o2)cc1OC -3.9%
Cc1ccc2nc3c(cc(C#N)c(=O)n3-c3nnc(SCc4ccccc4Cl)s3)c(=O)n2c1 0.955%
COc1ccc(Nc2ncc3c(n2)CCN(Cc2ccc(Br)s2)C3)c(OC)c1 -12.9%
CCOc1ccc(C(=O)Nc2cccc(-c3nc4cccnc4s3)c2C)cc1OCC -3.2%
O=C(OCc1cc(=O)n2nc(-c3cccs3)sc2n1)c1ccc(F)cc1 7.01%

outcome, inactive:
Cc1cccc(NC(=O)c2cc(S(=O)(=O)N3CCC4(CC3)OCCO4)ccc2F)c1
COc1ccc(N2CC(NC(=O)c3ccc(S(=O)(=O)N4CCCCC4)cc3)CC2=O)cc1OC (configuration not stated)
Cc1ccc2nc(-c3ccc(NC(=O)COc4ccc(Cl)c(C)c4)cc3)sc2c1
COc1ccc(Nc2cc(C)c3cc(NC(=O)Cc4c(F)cccc4Cl)ccc3n2)cc1
CCn1c(SCc2ccccc2F)nc(=O)c2c(C(=O)OC)cc(C3CC3)nc21
Cc1ccc(C)c(N2CCN(C(=O)c3ccc4[nH]c(C)c(C)c4c3)CC2)c1
Cc1ccc(NC(=O)CN2C(=O)CCc3cc(S(=O)(=O)N4CCCCC4)ccc32)cc1N(C)C
CCCCN(CCCC)CCNC(=O)c1cc(=O)[nH]c2ccc(S(=O)(=O)N3CCCCCC3)cc12
Cc1ccc(CNC(=O)C2CCCN(S(=O)(=O)c3ccc4c(ccn4C)c3)C2)cc1 (configuration not stated)
COc1ccc(-c2noc(CSc3nnc(-c4ccc(Cl)cc4)n3C)n2)cc1OC
Cc1ccc(Cl)cc1NC(=O)CSc1nc(C)c(C)c(C)c1C#N
Cc1cc(C)c(NC(=O)CSc2ncc(S(=O)(=O)c3ccc(C(C)(C)C)cc3)c(=O)[nH]2)c(C)c1
COc1cc(OC)c(NC(=O)c2c3c(nn2C)-c2ccccc2SC3)cc1Cl
Cc1ccc(N2CC(NC(=O)C3CCCCC3)CC2=O)cc1C (configuration not stated)
CC1(C(=O)Nc2ncc(Cc3ccc(Br)cc3)s2)Cc2ccccc2C(=O)O1 (configuration not stated)
COc1cccc2c1Oc1ncccc1N(c1ccc(C(=O)NCc3cccc(C)c3)s1)C2
CCOc1ccc(NS(=O)(=O)c2ccc3nc(-c4ccccc4)[nH]c3c2)cc1
Cc1csc2nc(COc3ccccc3NC(=O)c3ccccc3Cl)cc(=O)n12
Cn1c(=O)cc(OCC(=O)NCc2ccc(F)cc2Cl)c2ccccc21
Cc1ccc(-c2nc(CS(=O)(=O)CC(=O)Nc3cc(C)ccc3C)c(C)o2)cc1
Cc1nn(-c2ccccc2)c2sc(C(=O)Nc3cccc(O)c3)cc12
O=C(Nc1ccccc1Cl)c1cc2c(-c3ccccc3)nn(-c3ccccc3)c2s1
Cc1ccc(C)c(N2CCN(S(=O)(=O)c3cc(C(=O)Nc4cc(Cl)cc(Cl)c4)ccc3F)CC2)c1
CCc1ccc2c(c1)NC(c1cccnc1)=NC(c1ccc(C(C)(C)C)cc1)=N2
Cc1ccc(Cl)cc1NC(=O)c1cc(S(=O)(=O)N2CCCCCC2)cn1C
CCN(c1ccccc1)c1nnc(NC(=O)Nc2ccc(C)cc2)s1
